Data taken from PubChem BioAssay AID493208 (National Center for Advancing Translational Sciences (NCATS), 2011).
In all, about 44,000 compounds went through this assay and about 340 (0.77%) were called active. Not shown: some 5% with an inconclusive outcome. The call rests on the fitted dose curve; in most records, active means well fitted inhibition curve with a large enough effect; inconclusive means small, poorly fitted or top-dose-only effect; inactive means flat fitted curve, though single readings scatter. The list shows a part of the results.

Assay: Acumen qHTS Assay for Inhibitors of the mTORC1 Signaling Pathway in MEF (Tsc2-/-, p53-/-) Cells: Sytravon;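 further: plate controls were DMSO for no effect and rapamycin for full effect; nearly all actives have a fitted effect of over 50% in size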
Details: phospho-rpS6 immunofluorescence/PI, 24 h; series mostly up to 38.3 µM; activity change, negative = inhibition: at the top concentration
How it was run: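 Plate MEFs (Tsc2-/-, p53-/-, empty vector) in DMEM/10% FBS; after 24 h add compound, incubate 24 h at 37 degree Celsius; fix in PFA/TX-100, block, stain phospho-rpS6 and 10 uM PI; scan at 488 nm; report % positive cells.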

Activity change, negative = inhibition, inactive:
CC(C)c1ccc(NC(=O)c2cc(S(=O)(=O)NCc3ccccc3Cl)ccc2F)cc1 -22.9%
CCOc1cc(C(=O)N2CCc3c([nH]c4ccccc34)C2c2ccccc2)cc(OCC)c1OCC (stereo unspecified) 2.09%
Cc1ccc(N(CC(=O)Nc2ccc(C)c(F)c2)S(=O)(=O)c2c(C)n[nH]c2C)cc1 -0.157%
N#Cc1c[nH]n2c(NC3CCCC3)c(-c3cccc(Cl)c3)nc12 0.971%
COc1ccc(C)cc1NC(=O)Cn1c(=O)ccc2cc(S(=O)(=O)N3CCCC3)ccc21 -1.67%
CCOC(=O)c1sc2ncn(CC(=O)Nc3ccc(C)cc3Br)c(=O)c2c1C 0.52%
CCc1ccc(Sc2cc(C(=O)NC(C)CC)c3ccccc3n2)cc1 (stereo unspecified) 0.128%
CCOc1ccc(OCC(=O)Nc2nnc3n2CCS3)cc1 -1.8%
COc1cccc(NC(=O)c2cnn(-c3ccccc3)c2-n2cccc2)c1 -1.1%
COc1ccc(-c2noc(CSc3nnc(-c4ccncc4)n3-c3ccc(C)cc3)n2)cc1 -4.21%
CCOc1ccc(Sc2cc(C(=O)NCCc3ccccc3)c3ccccc3n2)cc1 6.74%
CCOc1nc(NC(=O)NS(=O)(=O)Oc2ccccc2)nc(-c2ccccc2)n1 1.29%
COc1cccc(CNC(=O)C2CCC(CNS(=O)(=O)c3ccc(Br)s3)CC2)c1 (stereo unspecified) -7.75%
CCOC(=O)C(Cc1c[nH]c2ccccc12)NC(=O)COc1ccc(Cl)c(C)c1 (stereo unspecified) -2.44%
O=S(=O)(c1ccc2c(c1)CCN2)N1CCCCCC1 -0.504%
Cc1ccc2c(c1)c1c(c(=O)n(Cc3ccccc3)c(=O)n1CC(=O)NCc1ccccc1Cl)n2C -14.8%
CCc1ccc(NCc2cc3cc(OC)c(OC)cc3n(CC(=O)Nc3cc(C)ccc3C)c2=O)cc1 1.84%
CN(C(=O)CN1C(=O)CCSc2ccc(S(=O)(=O)N3CCCC3)cc21)c1ccccc1 -2.23%
Cc1cccc(C)c1Nc1nc2ccccc2nc1NS(=O)(=O)c1ccccc1 9.71%
COc1ccc(C(C)n2c(C)c3c(C)nnc(C)c3c2C)cc1 (stereo unspecified) -6.24%
COc1ccc(S(=O)(=O)N(CC(=O)NCc2ccccc2)c2ccc(C)cc2)cc1OC -7.71%
O=C(Cn1c(=O)nc(-c2ccccc2)c2ccccc21)NCc1ccc(F)cc1 -5.28%
O=C(Nc1ccccc1)N(Cc1ccc(F)cc1)c1ccccn1 -3.32%
C=Cc1ccc(CN2C(=O)c3ccccc3Sc3ccc(C(=O)OCc4ccco4)cc32)cc1 -8.96%
Cc1cc(O)c(C(c2ccccc2)N2CCN(C)CC2)c(=O)n1Cc1ccco1 (stereo unspecified) -7.42%
COc1ccc(-c2noc(CN(C(C)C)S(=O)(=O)c3ccc(Br)cc3)n2)cc1 1.52%
CC1=C(C(=O)N2CCN(c3cccc(C)c3C)CC2)C2(CCCCC2)OC1=O -13.2%
Cc1cccc(NC2=CC(c3cccc(Br)c3)N(c3cccc(C)c3)C2=O)c1 (stereo unspecified) 5%
CCN(CC)CCCNC(=O)c1ccc2c(c1)NC(=O)C(CS(=O)(=O)Cc1cccc(Br)c1)N2 (stereo unspecified) -0.123%
Cc1ccc(CNC(=O)c2c(O)nc3c(C)cccn3c2=O)cc1 -1.19%
Cc1nc2ccc(S(=O)(=O)NC(CC(C)C)C(=O)N3CCN(c4ccc(F)cc4)CC3)cc2s1 (stereo unspecified) -8.94%
CN(C)c1ccc(CNS(=O)(=O)c2ccc3[nH]c4c(c3c2)CCCCC4)cc1 -0.188%
COc1ccc(Br)cc1CNC(=O)c1nn(-c2ccc(C)cc2)c(=O)c2c1c1ccccc1n2C -12.7%
Cc1ccccc1-c1noc(-c2cccnc2N(C)Cc2ccc(Cl)cc2)n1 -0.213%
Fc1ccc(Cc2cn3cc(-c4ccccc4)nc3s2)cc1 2.21%
O=C(C1CC1)N1CCN(c2nc3c(Cl)cccc3s2)CC1 -2.25%
COc1ccc(CCNC(=O)CSc2nnnn2-c2cccc(C(C)=O)c2)cc1OC -2.03%
CCOC(=O)c1ccc(NC(=O)c2csnn2)cc1 -0.848%
CCOC(=O)c1cccc(NC(=O)CCC(=O)N2CC(C)Oc3ccc(C)cc32)c1 (stereo unspecified) 2.11%
CC1CCN(S(=O)(=O)c2ccc3c(c2)N(CC(=O)NC(C)C)C(=O)CO3)CC1 -12.8%
Cc1ccc(-c2nnc(Nc3ccc(Cl)c(Cl)c3)c3ccccc23)cc1S(=O)(=O)NCCO 14.4%
COc1cccc(CNC(=O)CSc2ncc(S(=O)(=O)c3ccc(Br)cc3)c(=O)[nH]2)c1 6.53%
Cc1ccc(NC(=O)C2CCCN2S(=O)(=O)c2cccc3nsnc23)cc1Cl (stereo unspecified) -8.79%
COc1ccc(CNC(=O)CSc2ncc(S(=O)(=O)c3ccc(C)c(Cl)c3)c(=O)[nH]2)cc1 -1.02%
COc1ccc(CNC(=O)c2ccc3c(c2)CCN3S(=O)(=O)c2ccc(C)cc2)cc1 -21.3%
Cc1c(C(=O)Nc2ccc(C(C)C)cc2)sc2nc[nH]c(=O)c12 -2.24%
Cc1cccc(NC(=O)c2oc3ccccc3c2NC(=O)c2cc(=O)c3cc(Cl)ccc3o2)c1 4.1%
Cn1c(SCC(=O)c2ccc(F)cc2)nnc1-c1ccccc1Br -13.5%
COc1ccccc1C(=O)Nc1c(C(=O)N(C)c2ccccc2)sc2nc(C)cc(C)c12 6.85%
Cn1c(=O)c2sccc2n2c(CCC(=O)NCc3ccccc3Cl)nnc12 1.16%
CN(Cc1ccccc1)C(=O)C1CCN(S(=O)(=O)c2ccc3nc4c(c(C(=O)O)c3c2)CCCC4)CC1 0.0393%
COc1ccc(CNC(=O)C2CCN(C(=O)N3CC(C)Oc4ccc(C)cc43)CC2)cc1 (stereo unspecified) -3.29%
O=C(CCS(=O)(=O)c1cc(Br)cc2c1N(C(=O)C1CC1)CC2)Nc1ccc(C(F)(F)F)cc1 0.504%
COc1ccc(-c2nc(Cn3c(SCc4ccccc4F)nc4ccncc43)c(C)o2)cc1OC -1.93%
Cc1ccc(S(=O)(=O)Nc2nc3n(n2)C(c2ccccc2Cl)C=C(c2ccccc2)N3)cc1 (stereo unspecified) -4.84%
CCOc1ccc(C(=O)Nc2cc(-c3cn4cccnc4n3)ccc2C)cc1OCC -0.124%
CCn1cc(C(=O)NCCc2ccc(C)cc2)c(=O)c2cc(S(=O)(=O)N3CCCCC3)ccc21 -14.5%
Cc1cc(C)cc(NC(=O)C2CCC(CNS(=O)(=O)c3ccc4c(c3)C(C)(C)C(=O)N4C)CC2)c1 (stereo unspecified) -15.9%
O=C(Cn1c(=O)n(-c2ccc(Cl)cc2)c(=O)c2oc3ccccc3c21)Nc1ccccc1 2.21%
CC1CCN(c2ncnc3c2nnn3C)CC1 -4.23%
CCN(CC)S(=O)(=O)c1nnc(NC(=O)c2ccc(C(C)C)cc2)s1 -8.88%
